The target of this experiment is T1, human IL-18 (human, UniProt Q14116 37-193).
T1 construct: also called Interleukin-18
T1 sequence (looked up): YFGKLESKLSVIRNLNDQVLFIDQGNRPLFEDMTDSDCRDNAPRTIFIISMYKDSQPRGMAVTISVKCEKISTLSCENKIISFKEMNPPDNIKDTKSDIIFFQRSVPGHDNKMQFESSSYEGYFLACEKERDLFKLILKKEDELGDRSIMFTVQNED
The experiment can be described thus: stated with the KG-1a cell IFN-γ neutralisation assay; no direct binding assay. How it is done:
12. In Vitro Activity Detection of Target Protein [0103] 1) Recovery of KG-1a cells is as follows. 8 mL of Dulbecco's modified eagle medium (DMEM) is added to a 10 mL centrifuge tube; the frozen KG-1a cells are taken and melted in a 37° C. water bath; and the melted KG-1a cells are immediately added to the prepared centrifuge tube and centrifuged at 1500 rpm for 5 minutes. The supernatant is sucked out and discarded, the precipitate is re-suspended with 1 mL of complete culture medium and added to a petri dish containing 6 mL of culture medium, shaken gently, and cultured in a 5% CO 2 incubator at 37° C. [0104] 2) The KG-1a cells are taken for observation under a microscope, and once the cells are in good growth status, the KG-1a cells are spread into a 96-well plate. [0105] 3) Plating: cells are collected into a sterile centrifuge tube by using a pipette and centrifuged at 1000 rpm for 5 minutes; the supernatant is discarded, resuspended and mixed with 1 mL of complete culture medium, 1 μL mixture is taken and diluted with complete culture medium 10 times, and the cells are counted under a microscope; 100 μL KG-1a cells per well (3×10⁵ cell/mL). [0106] […]

The values that follow come from patent US20230407364A1 (GUANGDONG MEDICAL UNIVERSITY, published 2023).

B1: recombinant interleukin-18 binding protein IL-18BP-Fc (human IL-18BP isoform a, (G4S)3 linker, human IgG-Fc) (Fc fusion)
chain: TPVSQTTTAATASVRSTKDPCPSQPPVFPAAKQCPALEVTWPEVEVPLNGTLSLSCVACSRFPNFSILYWLGNGSFIEHLPGRLWEGSTSRERGSTGTQLCKALVLEQLTPALHSTNFSCVLVDPEQVVQRHVVLAQLWAGLRATLPPTQEALPSSHSSPQQQGGGGGSGGGGSGGGGS[human IgG1 Fc not listed]
notes: also called recombinant IL-18BP; recombinant protein IL-18BP-Fc
In the case of B1, the binding result is given as “binds”.
